In patent publication US20210388337A1 (CARNEGIE MELLON UNIVERSITY, published 2021):

How the values were obtained:
Biotin-histone [1] = target: T1, Biotin-histone; test: stopped-flow tryptophan fluorescence, avidin 0.5 µM, biotin-protein 5.0 µM
T1 construct: also called histone-bio; biotinylated histone
Experimental: (§1) Pullulan standards (PSS-Polymer Standards Service—USA Inc., Amherst, Mass.) were used for calibration. Matrix-Assisted Laser Desorption Ionization Time-of-Flight Spectrometry (MALDI-ToF MS) was performed with a Perseptive Biosystems Voyager Elite MALDI-TOF spectrometer. Dynamic Light Scattering (DLS) data were collected on a Malvern Zetasizer nano-ZS. The concentration of the sample solution was kept at 1.0 mg/mL. The hydrodynamic diameter of samples was measured three times (5 run to each measurement, reported as number distribution) in 0.1 M sodium phosphate, pH 8. Biotin and bio-PEG binding kinetics were measured using a stopped-flow spectrometer with fluorescence detection (Applied Photophysics SX20). […] Instrument permitted to collect 1000 data points throughput the reaction (0.1-450 s). Bio-pro binding kinetics were obtained using a stopped-flow accessory mounted on PTI QuantaMaster-400 fluorometer (Horiba Instruments Inc.). The excitation wavelength was set to 295 nm and emission wavelength was monitored at 340 nm. Ten data points per second were collected and data were acquired using FelixGX software (Horiba Instruments Inc.). For all experiments, avidin concentration was 0.5 μM (final) and biotin, bio-PEG or bio-pro concentrations were held at 5.0 μM (final). Reactions were initiated by mixing equal volumes of avidin with its substrates in 0.1 M phosphate buffer, pH 8. Fluorescence was measured in volts.
Data were fit to single exponential functions using F(t) = F_{∞} − ΔFexp(−kobst) equation, where, kobs is the observed first-order rate constant, F_{∞} is the final value of fluorescence and ΔF is the amplitude. In case of native avidin kinetics the data were fit to single exponential functions using F(t) = F_{∞} + ΔFexp(−kobst) equation, where, kobs is the observed first-order rate constant, F_{∞} is the final value of fluorescence and ΔF is the amplitude.

Biotin-histone [2] = target: T1, Biotin-histone; test: as above; remark: listed apart in the source
Experimental: as §1, with “UV-VIS spectra were obtained and used for protein concentration determination using a UV-VIS spectrometer (Lambda 2, PerkinElmer). Melting points (mp) were measured with a Laboratory Devices Mel-Temp. Number and weight average molecular weights (Mₙ and Mw) and the polydispersity index (Mw/Mₙ) were estimated by gel permeation chromatography (GPC) on a Water 2695 Series with a data processor, equipped with three columns (Waters Ultrahydrogel Linier, 500 and 250), using Dulbecco's Phosphate Buffered Saline with 0.02 wt % sodium azide as an eluent at flow rate 1.0 mL/min, with detection by a refractive index (RI) detector. Pullulan” for “Pullulan”
Data were fit to single exponential functions using F(t) = F_{∞} − ΔFexp(−kobst) equation, where, kobs is the observed first-order rate constant, F_{∞} is the final value of fluorescence and ΔF is the amplitude.

Row | Binder | k (kobs, observed first-order rate constant) (Biotin-histone [1]) | k (kobs, observed first-order rate constant) (Biotin-histone [2])
1 | Avidin-pCBMA170 (other, UniProt P02701 25-152, looked up, pCBMA (DP 170) grown by ATRP from single-headed initiator on an average of 8 amine groups per avidin monomer, including K45, K71 and K111, mature; Low-density protein-polymer conjugate, single-headed ATRP initiator; also called low-density avidin-pCBMA170) ARKCSLTGKWTNDLGSNMTIGAVNSRGEFTGTYITAVTATSNEIKESPLHGTQNTINKRTQPTFGFTVNWKFSESTTVFTGQCFIDRNGKEVLKTMWLLRSSVNDIGDDWKATRVGINIFTRLRTQKE | 0.245 s⁻¹ | –
2 | Avidin-pCBMA232 (other, UniProt P02701 25-152, looked up, pCBMA (DP 232) grown by ATRP from single-headed initiator on an average of 8 amine groups per avidin monomer, including K45, K71 and K111, mature; Low-density protein-polymer conjugate, single-headed ATRP initiator; also called low-density avidin-pCBMA232) ARKCSLTGKWTNDLGSNMTIGAVNSRGEFTGTYITAVTATSNEIKESPLHGTQNTINKRTQPTFGFTVNWKFSESTTVFTGQCFIDRNGKEVLKTMWLLRSSVNDIGDDWKATRVGINIFTRLRTQKE | 0.231 s⁻¹ | –
3 | Native avidin (other, UniProt P02701 25-152, looked up, mature; Purified from egg white; Form 'mature' inferred from purification from the natural source; also called avidin from egg white) ARKCSLTGKWTNDLGSNMTIGAVNSRGEFTGTYITAVTATSNEIKESPLHGTQNTINKRTQPTFGFTVNWKFSESTTVFTGQCFIDRNGKEVLKTMWLLRSSVNDIGDDWKATRVGINIFTRLRTQKE | 15.7 s⁻¹ | 15.7 s⁻¹
4 | Avidin-pCBMA58 (other, UniProt P02701 25-152, looked up, two pCBMA chains (DP 58) grown by ATRP from each double-headed initiator, an average of 7 initiators per avidin monomer, including K45, K71 and K111, mature; High-density protein-polymer conjugate, double-headed ATRP initiator, 0.5 chains/nm^2; also called high-density avidin-pCBMA58) ARKCSLTGKWTNDLGSNMTIGAVNSRGEFTGTYITAVTATSNEIKESPLHGTQNTINKRTQPTFGFTVNWKFSESTTVFTGQCFIDRNGKEVLKTMWLLRSSVNDIGDDWKATRVGINIFTRLRTQKE | – | 0.039 s⁻¹
5 | Avidin-pCBMA109 (other, UniProt P02701 25-152, looked up, two pCBMA chains (DP 109) grown by ATRP from each double-headed initiator, an average of 7 initiators per avidin monomer, including K45, K71 and K111, mature; High-density protein-polymer conjugate, double-headed ATRP initiator; also called high-density avidin-pCBMA109) ARKCSLTGKWTNDLGSNMTIGAVNSRGEFTGTYITAVTATSNEIKESPLHGTQNTINKRTQPTFGFTVNWKFSESTTVFTGQCFIDRNGKEVLKTMWLLRSSVNDIGDDWKATRVGINIFTRLRTQKE | – | 0.035 s⁻¹
6 | Avidin-pCBMA152 (other, UniProt P02701 25-152, looked up, two pCBMA chains (DP 152) grown by ATRP from each double-headed initiator, an average of 7 initiators per avidin monomer, including K45, K71 and K111, mature; High-density protein-polymer conjugate, double-headed ATRP initiator; also called high-density avidin-pCBMA152) ARKCSLTGKWTNDLGSNMTIGAVNSRGEFTGTYITAVTATSNEIKESPLHGTQNTINKRTQPTFGFTVNWKFSESTTVFTGQCFIDRNGKEVLKTMWLLRSSVNDIGDDWKATRVGINIFTRLRTQKE | – | 0.034 s⁻¹
7 | Avidin-pCBMA182 (other, UniProt P02701 25-152, looked up, two pCBMA chains (DP 182) grown by ATRP from each double-headed initiator, an average of 7 initiators per avidin monomer, including K45, K71 and K111, mature; High-density protein-polymer conjugate, double-headed ATRP initiator; also called high-density avidin-pCBMA182) ARKCSLTGKWTNDLGSNMTIGAVNSRGEFTGTYITAVTATSNEIKESPLHGTQNTINKRTQPTFGFTVNWKFSESTTVFTGQCFIDRNGKEVLKTMWLLRSSVNDIGDDWKATRVGINIFTRLRTQKE | – | 0.032 s⁻¹
8 | Avidin-pCBMA56 (other, UniProt P02701 25-152, looked up, pCBMA (DP 56) grown by ATRP from single-headed initiator on an average of 8 amine groups per avidin monomer, including K45, K71 and K111, mature; Low-density protein-polymer conjugate, single-headed ATRP initiator, 0.29 polymer chains/nm^2; also called low-density avidin-pCBMA56; avidin-pCBMA50 (target DP)) ARKCSLTGKWTNDLGSNMTIGAVNSRGEFTGTYITAVTATSNEIKESPLHGTQNTINKRTQPTFGFTVNWKFSESTTVFTGQCFIDRNGKEVLKTMWLLRSSVNDIGDDWKATRVGINIFTRLRTQKE | 0.282 s⁻¹ | –
9 | Avidin-pCBMA121 (other, UniProt P02701 25-152, looked up, pCBMA (DP 121) grown by ATRP from single-headed initiator on an average of 8 amine groups per avidin monomer, including K45, K71 and K111, mature; Low-density protein-polymer conjugate, single-headed ATRP initiator; also called low-density avidin-pCBMA121) ARKCSLTGKWTNDLGSNMTIGAVNSRGEFTGTYITAVTATSNEIKESPLHGTQNTINKRTQPTFGFTVNWKFSESTTVFTGQCFIDRNGKEVLKTMWLLRSSVNDIGDDWKATRVGINIFTRLRTQKE | 0.252 s⁻¹ | –

Read-outs that look alike come from different tables or passages of the source.
